Assay [1] addresses T1, Carnitine palmitoyltransferase 1a (Cpt1a), endogenous (mouse (endogenous in MH-S and in mouse lung macrophages)) (UniProt P97742).
T1 sequence: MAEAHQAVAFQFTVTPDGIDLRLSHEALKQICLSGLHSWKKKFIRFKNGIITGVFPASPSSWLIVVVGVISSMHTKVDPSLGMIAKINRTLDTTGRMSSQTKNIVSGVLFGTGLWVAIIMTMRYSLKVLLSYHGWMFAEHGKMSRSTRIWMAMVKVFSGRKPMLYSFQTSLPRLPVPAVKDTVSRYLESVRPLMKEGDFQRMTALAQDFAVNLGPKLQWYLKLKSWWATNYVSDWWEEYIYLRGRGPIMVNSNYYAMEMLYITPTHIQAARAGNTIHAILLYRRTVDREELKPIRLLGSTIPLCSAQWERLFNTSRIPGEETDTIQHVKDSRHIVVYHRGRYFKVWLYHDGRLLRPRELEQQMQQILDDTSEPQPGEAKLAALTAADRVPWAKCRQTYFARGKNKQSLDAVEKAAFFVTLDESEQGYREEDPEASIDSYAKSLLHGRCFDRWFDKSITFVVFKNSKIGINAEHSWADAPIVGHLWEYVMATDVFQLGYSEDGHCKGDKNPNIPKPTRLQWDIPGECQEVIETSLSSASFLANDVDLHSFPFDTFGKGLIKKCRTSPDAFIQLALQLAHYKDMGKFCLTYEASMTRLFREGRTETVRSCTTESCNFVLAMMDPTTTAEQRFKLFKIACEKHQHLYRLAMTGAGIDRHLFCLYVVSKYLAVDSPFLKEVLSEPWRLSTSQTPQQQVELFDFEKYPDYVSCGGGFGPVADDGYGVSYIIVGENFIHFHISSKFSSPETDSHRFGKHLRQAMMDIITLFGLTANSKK
Put plainly: co-IP; lung macrophages isolated at 21 days from DN-MCU-Lyz2-cre mice and WT littermates exposed to saline or bleomycin; Cpt1a immunoprecipitation, immunoblot for Bcl-2 and Cpt1a.

Sequences of proteins named here, by UniProt entry; tags and fusion partners are left off.
UniProt P10417: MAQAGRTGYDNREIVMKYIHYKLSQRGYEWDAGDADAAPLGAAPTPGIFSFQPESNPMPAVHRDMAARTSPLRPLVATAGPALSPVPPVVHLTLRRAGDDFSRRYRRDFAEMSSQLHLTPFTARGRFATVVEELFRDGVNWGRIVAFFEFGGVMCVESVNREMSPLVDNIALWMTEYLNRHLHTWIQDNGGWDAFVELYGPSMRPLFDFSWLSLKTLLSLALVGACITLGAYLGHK

The target of assay [2] is T2, Cpt1a-His-V5 (UniProt P97742).
T2 sequence: T1 sequence
Put plainly: condition: only cells treated with ABT-199 (1 μM, overnight); co-IP; MH-S cells transfected to overexpress Cpt1a and treated with ABT-199 (1 μM, overnight); lysate immunoprecipitated with Cpt1a antibody, immunoblot for Bcl-2. A general note: In western blotting, separated proteins are transferred to a membrane and probed.

Assay [3] deals with T2, Cpt1a-His-V5. Put plainly: co-IP; MH-S cells (transfected with empty, MCUWT and/or Cpt1a; or treated with octanoate 10 µM or palmitate 100 µM for 3 h; or vehicle), NP40 lysis buffer; Cpt1a antibody crosslinked to Dynabeads Protein G, 1 h at room temperature; immunoblot for Bcl-2 and Cpt1a.
The target of assay [4] is T1, Carnitine palmitoyltransferase 1a (Cpt1a), endogenous (mouse (endogenous in MH-S and in mouse lung macrophages)). The description is as above.
In assay [5] the target is T2, Cpt1a-His-V5. Put plainly: pull-down; V5-His-tagged protein purified from transfected MH-S cells (as previously described, ref. 25), immunoblot for the partner.

No constants are given. Whether binding was seen depends on the method and setting. In cells and extracts the contact can be indirect. Some results given as binding are weak or reduced against the parent protein; the word gives no strength. For some assays here: Where a sequence is shown, tags or fusion partners need not be part of it.

In the case of “B-cell lymphoma-2 (Bcl-2), endogenous (from UniProt P10417 1-236)”, the binding entry in assay [1] is given as “binds”; with Cpt1a-His-V5 [2] it was “no binding”; with Cpt1a-His-V5 [3], “binds”; in assay [4], “binds”; with Cpt1a-His-V5 [5], “binds”.

Values taken from PMC8738732.
